Reference: the supplement of paper PMC8728848
The list shows a part of the results.

Key:
Assay in all cases: glycan array binding signal (z-score within array); higher = stronger binding
Conditions in all cases: glycan notation: IUPAC condensed, linker removed; mutation: H59Q
[1] = target: Fuc(a1-2)Gal(b1-4)GlcNAc(b1-3)Gal(b1-4)GlcNAc(b1-2)Man(a1-3)[Fuc(a1-2)Gal(b1-4)GlcNAc(b1-3)Gal(b1-4)GlcNAc(b1-2)Man(a1-6)]Man(b1-4)GlcNAc(b1-4)GlcNAc
In short: (§1)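 The Consortium for Functional Glycomics database supplied 3228 glycan arrays, of which those lacking an available protein sequence were dropped. The binding signal, a within-array Z-score, was averaged across arrays of the same protein sequence and across linkers. Negative scores can be read as non-binding.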

[2] = target: Fuc(a1-2)Gal(b1-4)GlcNAc(b1-3)Gal(b1-4)GlcNAc(b1-3)Gal(b1-4)GlcNAc
In short: as §1

[3] = target: Fuc(a1-2)Gal(b1-4)GlcNAc(b1-3)GalNAc
In short: as §1

[4] = target: Fuc(a1-2)Gal(b1-4)GlcNAc(b1-3)[Fuc(a1-2)Gal(b1-4)GlcNAc(b1-6)]GalNAc
In short: as §1

[5] = target: Fuc(a1-2)Gal(b1-4)GlcNAc(b1-3)[Fuc(a1-3)[Gal(b1-4)]GlcNAc(b1-6)]Gal(b1-4)Glc
In short: as §1

[6] = target: Fuc(a1-2)Gal(b1-4)GlcNAc(b1-6)GalNAc
In short: as §1

[7] = target: Fuc(a1-2)Gal(b1-4)GlcNAc6S
In short: as §1

[8] = target: Fuc(a1-2)Gal(b1-4)[Fuc(a1-3)]GlcNAc
In short: as §1

[9] = target: Fuc(a1-2)Gal(b1-4)[Fuc(a1-3)]GlcNAc(b1-2)Man(a1-3)[Fuc(a1-2)Gal(b1-4)[Fuc(a1-3)]GlcNAc(b1-2)Man(a1-6)]Man(b1-4)GlcNAc(b1-4)[Fuc(a1-6)]GlcNAc
In short: as §1

[10] = target: Fuc(a1-2)Gal(b1-4)[Fuc(a1-3)]GlcNAc(b1-2)[Fuc(a1-2)Gal(b1-4)[Fuc(a1-3)]GlcNAc(b1-4)]Man(a1-3)[Fuc(a1-2)Gal(b1-4)[Fuc(a1-3)]GlcNAc(b1-2)Man(a1-6)]Man(b1-4)GlcNAc(b1-4)GlcNAc
In short: as §1

[11] = target: Fuc(a1-2)Gal(b1-4)[Fuc(a1-3)]GlcNAc(b1-3)Gal(b1-4)[Fuc(a1-3)]GlcNAc
In short: as §1

[12] = target: Fuc(a1-2)Gal(b1-4)[Fuc(a1-3)]GlcNAc(b1-3)Gal(b1-4)[Fuc(a1-3)]GlcNAc(b1-3)Gal(b1-4)[Fuc(a1-3)]GlcNAc
In short: as §1

[13] = target: Fuc(a1-2)Gal(b1-4)[Fuc(a1-3)]GlcNAc(b1-3)GalNAc
In short: as §1

[14] = target: Fuc(a1-2)Gal(b1-4)[Fuc(a1-3)]GlcNAc(b1-3)[Neu5Ac(a2-6)Gal(b1-4)GlcNAc(b1-6)]Gal(b1-4)Glc
In short: as §1

[15] = target: Fuc(a1-2)Gal3S(b1-4)GlcNAc
In short: as §1

[16] = target: Fuc(a1-2)Gal6S(b1-3)GlcNAc
In short: as §1

[17] = target: Fuc(a1-2)Gal6S(b1-3)GlcNAc6S
In short: as §1

Fuc(a1-2)Gal6S(b1-4)Glc = target: Fuc(a1-2)Gal6S(b1-4)Glc
In short: as §1

[18] = target: Fuc(a1-2)Gal6S(b1-4)Glc6S
In short: as §1

Fuc(a1-2)[Gal(a1-3)]Gal = target: Fuc(a1-2)[Gal(a1-3)]Gal
In short: as §1

[19] = target: Fuc(a1-2)[Gal(a1-3)]Gal(b1-3)GalNAc
In short: as §1

[20] = target: Fuc(a1-2)[Gal(a1-3)]Gal(b1-3)GalNAc(b1-3)Gal(a1-4)Gal(b1-4)Glc
In short: as §1

[21] = target: Fuc(a1-2)[Gal(a1-3)]Gal(b1-3)GlcNAc
In short: as §1

[22] = target: Fuc(a1-2)[Gal(a1-3)]Gal(b1-3)GlcNAc(b1-2)Man(a1-3)[Fuc(a1-2)[Gal(a1-3)]Gal(b1-3)GlcNAc(b1-2)Man(a1-6)]Man(b1-4)GlcNAc(b1-4)GlcNAc
In short: as §1

[23] = target: Fuc(a1-2)[Gal(a1-3)]Gal(b1-3)GlcNAc(b1-2)Man(a1-3)[Fuc(a1-2)[Gal(a1-3)]Gal(b1-3)GlcNAc(b1-2)Man(a1-6)]Man(b1-4)GlcNAc(b1-4)[Fuc(a1-6)]GlcNAc
In short: as §1

[24] = target: Fuc(a1-2)[Gal(a1-3)]Gal(b1-3)GlcNAc(b1-3)GalNAc
In short: as §1

[25] = target: Fuc(a1-2)[Gal(a1-3)]Gal(b1-3)GlcNAc(b1-6)GalNAc
In short: as §1

[26] = target: Fuc(a1-2)[Gal(a1-3)]Gal(b1-4)Glc
In short: as §1

[27] = target: Fuc(a1-2)[Gal(a1-3)]Gal(b1-4)GlcNAc
In short: as §1

[28] = target: Fuc(a1-2)[Gal(a1-3)]Gal(b1-4)GlcNAc(b1-2)Man
In short: as §1

[29] = target: Fuc(a1-2)[Gal(a1-3)]Gal(b1-4)GlcNAc(b1-2)Man(a1-3)[Fuc(a1-2)[Gal(a1-3)]Gal(b1-4)GlcNAc(b1-2)Man(a1-6)]Man(b1-4)GlcNAc(b1-4)GlcNAc
In short: as §1

[30] = target: Fuc(a1-2)[Gal(a1-3)]Gal(b1-4)GlcNAc(b1-2)Man(a1-3)[Fuc(a1-2)[Gal(a1-3)]Gal(b1-4)GlcNAc(b1-2)Man(a1-6)]Man(b1-4)GlcNAc(b1-4)[Fuc(a1-6)]GlcNAc
In short: as §1

[31] = target: Fuc(a1-2)[Gal(a1-3)]Gal(b1-4)GlcNAc(b1-3)GalNAc
In short: as §1

[32] = target: Fuc(a1-2)[Gal(a1-3)]Gal(b1-4)GlcNAc(b1-3)[Fuc(a1-2)[Gal(a1-3)]Gal(b1-4)GlcNAc(b1-6)]GalNAc
In short: as §1

[33] = target: Fuc(a1-2)[Gal(a1-3)]Gal(b1-4)GlcNAc(b1-6)GalNAc
In short: as §1

[34] = target: Fuc(a1-2)[Gal(a1-3)]Gal(b1-4)[Fuc(a1-3)]Glc
In short: as §1

[35] = target: Fuc(a1-2)[Gal(a1-3)]Gal(b1-4)[Fuc(a1-3)]GlcNAc
In short: as §1

[36] = target: Fuc(a1-2)[Gal(a1-3)]Gal(b1-4)[Fuc(a1-3)]GlcNAc(b1-3)GalNAc
In short: as §1

[37] = target: Fuc(a1-2)[Gal(a1-4)]Gal(b1-4)GlcNAc
In short: as §1

[38] = target: Fuc(a1-2)[GalNAc(a1-3)]Gal
In short: as §1

[39] = target: Fuc(a1-2)[GalNAc(a1-3)]Gal(b1-3)GalNAc(a1-3)[Fuc(a1-2)]Gal(b1-4)GlcNAc
In short: as §1

[40] = target: Fuc(a1-2)[GalNAc(a1-3)]Gal(b1-3)GalNAc(b1-3)Gal(a1-4)Gal(b1-4)Glc
In short: as §1

[41] = target: Fuc(a1-2)[GalNAc(a1-3)]Gal(b1-3)GlcNAc
In short: as §1

[42] = target: Fuc(a1-2)[GalNAc(a1-3)]Gal(b1-3)GlcNAc(b1-2)Man(a1-3)[Fuc(a1-2)[GalNAc(a1-3)]Gal(b1-3)GlcNAc(b1-2)Man(a1-6)]Man(b1-4)GlcNAc(b1-4)GlcNAc
In short: as §1

[43] = target: Fuc(a1-2)[GalNAc(a1-3)]Gal(b1-3)GlcNAc(b1-2)Man(a1-3)[Fuc(a1-2)[GalNAc(a1-3)]Gal(b1-3)GlcNAc(b1-2)Man(a1-6)]Man(b1-4)GlcNAc(b1-4)[Fuc(a1-6)]GlcNAc
In short: as §1

B1: rAAL-H59Q (Agrocybe aegerita), Q6WY08 (protein)
chain: MQGVNIYNISAGTSVDLAAPVTTGDIVTFFSSALNLNAGAGNPNNTTLNLFAENGAYLLQIAFRLQENVIIFNSRQPDGPWLVEQRVSDVANQFAGIDGKAMVTVFDHGDKYQVVINEKTVIQYTKQISGLTLSLSYNATEETSIFSTVVEAVTYTGLALEHHHHHH
glycan array binding signal (z-score) [1]: -0.116
glycan array binding signal (z-score) [2]: -0.113
glycan array binding signal (z-score) [3]: -0.077
glycan array binding signal (z-score) [4]: -0.088
glycan array binding signal (z-score) [5]: -0.078
glycan array binding signal (z-score) [6]: -0.099
glycan array binding signal (z-score) [7]: -0.085
glycan array binding signal (z-score) [8]: -0.09
glycan array binding signal (z-score) [9]: 0.171
glycan array binding signal (z-score) [10]: -0.047
glycan array binding signal (z-score) [11]: -0.063
glycan array binding signal (z-score) [12]: -0.059
glycan array binding signal (z-score) [13]: -0.048
glycan array binding signal (z-score) [14]: -0.107
glycan array binding signal (z-score) [15]: -0.159
glycan array binding signal (z-score) [16]: -0.097
glycan array binding signal (z-score) [17]: -0.013
glycan array binding signal (z-score) (Fuc(a1-2)Gal6S(b1-4)Glc): -0.152
glycan array binding signal (z-score) [18]: -0.148
glycan array binding signal (z-score) (Fuc(a1-2)[Gal(a1-3)]Gal): -0.072
glycan array binding signal (z-score) [19]: -0.077
glycan array binding signal (z-score) [20]: -0.053
glycan array binding signal (z-score) [21]: -0.115
glycan array binding signal (z-score) [22]: -0.124
glycan array binding signal (z-score) [23]: -0.071
glycan array binding signal (z-score) [24]: -0.106
glycan array binding signal (z-score) [25]: -0.1
glycan array binding signal (z-score) [26]: -0.071
glycan array binding signal (z-score) [27]: -0.026
glycan array binding signal (z-score) [28]: -0.082
glycan array binding signal (z-score) [29]: -0.078
glycan array binding signal (z-score) [30]: -0.055
glycan array binding signal (z-score) [31]: -0.147
glycan array binding signal (z-score) [32]: -0.041
glycan array binding signal (z-score) [33]: -0.106
glycan array binding signal (z-score) [34]: -0.097
glycan array binding signal (z-score) [35]: -0.06
glycan array binding signal (z-score) [36]: -0.061
glycan array binding signal (z-score) [37]: -0.044
glycan array binding signal (z-score) [38]: -0.123
glycan array binding signal (z-score) [39]: -0.015
glycan array binding signal (z-score) [40]: -0.088
glycan array binding signal (z-score) [41]: -0.017
glycan array binding signal (z-score) [42]: -0.063
glycan array binding signal (z-score) [43]: -0.106
